The text below walks through data of patent US20170319611A1, “METHODS AND COMPOSITIONS COMPRISING AKT INHIBITORS AND/OR PHOSPHOLIPASE D INHIBITORS” (Vanderbilt University, priority 2012, published 2017).

Assay [1] deals with LC3. Nature of the assay: Tandem-fluorescent LC3 (GFP/RFP) imaging, U87MG stable cells. In kind it is cell-based, human. As to conditions: tf-LC3 U87MG, overnight, serum-free DMEM; 10 μM EVJ, 5 μM JWJ, 10 μM MK2206. As to the method:
Glass coverslips were flame sterilized and placed into 6-well plates. U87MG-tfLC3 cells were seeded at 150,000 cells/well in complete media and allowed to adhere overnight. The following day, cells were washed and treated with inhibitors in serum-free DMEM for 24 h. Cells were washed in 1×PBS then fixed for 15 minutes in 2% paraformaldehyde followed by washing in PBS. Coverslips were removed and mounted onto glass slides in Vectashield mounting media containing DAPI (Vector Labs). GPF/RFP images were acquired using Nikon AIR laser scanning confocal microscope equipped with a Plan Apo VC 60× 1.4 N.A. and 40× oil immersion lens.
This reporter system consists of a red fluorescent protein (RFP) and a green fluorescent protein (GFP) fused to LC3. As autophagosome numbers increase, either due to increased autophagy initiation or decreased degradation, fluorescence intensity increases as LC3 clusters on autophagosome membranes. Unlike RFP, GFP is quenched by low pH and LC3 present in lysosomes should predominantly emit an RFP signal. […] The tF-LC3 U87MG cells were treated with PLD or Akt inhibitors overnight, fixed, and imaged for GFP and RFP signals. Under vehicle treated conditions, numbers of LC3 puncta were low and predominantly visualized with the pH-insensitive RFP tag, indicative of functional autophagy.

The test system of assay [2] is LC3. Kind of assay: Autophagy marker immunoblot, HEK293-TREx cells. The class given is cell-based, human. The settings on record: overnight, serum-free DMEM, 10 μM EVJ, 5 μM JWJ, 10 μM MK2206. As to the method:
To determine if the effects on autophagy following PLD inhibition were cell-type specific, LC3/p62 levels between U87MG cells and HEK293 cells were examined. […] However, the levels of LC3 and p62 under basal conditions were much higher in the U87MG cells.

The subject of assay [3] is Beclin1/Rubicon complex. Nature of the assay: Rubicon co-immunoprecipitation with HA-Beclin1, U87MG cells. As to conditions: 6 h, serum-free DMEM; for binding of Rubicon to S295A mutant of Beclin1: S295A HA-Beclin1, 10 μM; for Rubicon co-immunoprecipitated with Beclin1: wild type HA-Beclin1, 10 μM. As to the method: Cells were scraped in ice-cold PBS then centrifuged at 1,000 g for 5 minutes to pellet cells. Cells were lysed by suspension in lysis buffer (50 mM Tris pH 8.0, 15 0 mM NaCl, 0.5% NP-40, 40 mM beta-glycerophosphate, 20 mM sodium pyrophosphate, 1 mM Na3VO4, 2 mM EDTA, 2 mM EGTA, 5 mM NaF, 1 mM DTT, and Roche complete protease inhibitor cocktail) and then subjected to 3 freeze/thaw cycles in dry ice/ethanol. Between each thaw cycle, lysates were drawn up and down through 25G syringe needles. Lysates were clarified by centrifugation at 10,000×g for 10 minutes at 4° C. In order to remove non-specific proteins, lysates were incubated with protein-G agarose (Millipore) for 2 h at 4° C. Beads were removed by centrifugation at 1,000×g for 1 min. Supernatants were transferred to new tubes and immunoprecipitating antibodies were allowed to incubate with pre-cleared lysates overnight at 4° C. Antibodies were captured using protein-G agarose for 2 h. Beads were washed 3× in lysis buffer containing 300 mM NaCl and complexes eluted by boiling in 2×SDS-PAGE loading buffer. For immunoprecipitation of endogenous proteins, normal IgG (Santa Cruz) was used as a nonspecific control.
(§1) After establishing that PLD and Akt promote autophagic flux, the molecular mechanism was investigated. The mammalian target of rapamycin (mTOR) pathway suppresses autophagy under nutrient rich conditions and PLD has been implicated as an upstream positive regulator of mTOR (reviewed in Foster, D. A. (2009) Biochim. Biophys. Actas 1791, 949-955). […] Referring to FIG. 22A, U87MG cells were treated overnight with 10 μM EVJ, 5 μM JWJ, 10 μM MK2206, or 1 μM mTOR inhibitor Torinl. Cells were immunoblotted for total and phosphorylated p70S6K1. […] Beclin1 is a component of the core autophagy complex (Liang, X. H. et al., (1999) Nature 402, 672-676) and exists in multiple protein complexes during progressive stages of autophagy (Kihara, A. (2001) EMBO Reports 2, 330-335). […] Band intensities of Rubicon and Beclin1 were determined and the ratio of Rubicon to Beclin1 was calculated for each sample. Fold changes in this ratio were calculated by comparing inhibitor conditions to the vehicle treated conditions within the wild-type or S295A Beclin1 groups (n=4, **p<0.01, ANOVA with Dunnett's post-hoc test, error bars=SEM). To address whether the interaction of Rubicon with Beclin1 was mediated by Akt phosphorylation, the two putative Akt phosphorylation residues on Beclin1, serine 234 and serine 295 (Wang, R. C. et al., (2012) Science 338, 956-959), were mutated and Rubicon binding assessed. […]

The test system of assay [4] is LC3 and p62. Kind of assay: Autophagy marker immunoblot (LC3-II, p62), U87MG cells. As to conditions: overnight, serum-free DMEM, 10 μM EVJ, 5 μM JWJ, 10 μM MK2206. The class given is cell-based, human. As to the method: Lysates were prepared by incubating cell pellets in lysis buffer (see immunoprecipitation procedure) for 30 minutes at 4° C. Protein concentrations were measuring using the Bio-Rad protein assay reagent. The antibodies used in the various studies as described herein, along with their vendors and catalog numbers are provided in Table 3.
In addition to apoptosis, cells undergo another type of programmed cell death requiring autophagy (Tsujimoto and Shimizu, (2005) Cell Death Differ. 12 Suppl 2, 1528-1534), a process known to be stimulated by nutrient or growth factor deprivation (Kroemer, G. et al., (2010) Mol. Cell 40, 280-293). Autophagy is a multistep process involving formation of double-membrane autophagosomes that engulf cytosolic components and deliver cargo to lysosomes for digestion and nutrient recycling (Ravikumar, B. et al., (2009) J. Cell Sci. 122, 1707-1711). In order to determine if autophagy was perturbed following PLD or Akt inhibitor (MK2206) (Hirai, H. et al., (2010) Mol. Cancer Ther. 9, 1956-1967) treatment, the expression levels of the well-characterized autophagy makers microtubule-associated protein 1A/1B-light chain 3 (LC3) and p62 were measured. Autophagasome number is frequently assessed by measuring conversion of cytosolic LC3-I to a membrane-associated, lipidated LC3-II which is readily measureable as a faster migrating species of LC3 during SDS-PAGE (Kabeya, Y. et al., (2000) EMBO J. 19, 5720-5728). The other marker, p62, is an LC3 and ubiquitin-binding protein, involved in the regulation of protein aggregates and is degraded by autophagy (Komatsu, M. et al., (2005) J. Cell Biol. 169, 425-434). Induction of autophagy and successful degradation of autophagosomes would thus be accompanied by a decrease in p62 levels. […] Fold change in immunoreactivity relative to vehicle control. ANOVA with Dunnett's post-hoc test was used to compare inhibitor treatment to vehicle control (**p<0.01).
To conclusively determine that flux, rather than autophagosome initiation, is regulated by PLC, LC3-II conversion in the presence of the lysosomal proton pump inhibitor bafilomycin A1, which prevents autophagosome fusion to lysosomes and inhibits degradation of autophagosomes, was measured. Thus, bafilomycin A1 is commonly used to discriminate the effects of a compound on autophagy initiation versus flux by assessing LC3-II levels in the presence of a test compound after clamping degradation of autophagosomes (Yamamoto, A. et al., (1998) Cell Struct. Funct. 23, 33-42).

The subject of assay [5] is mTOR. Nature of the assay: mTOR activity (p70S6-kinase phosphorylation), U87MG cells. As to conditions: overnight, 10 μM EVJ, 5 μM JWJ, 10 μM MK2206. As to the method:
as §1

The structures appear in SMILES notation.

For `O=C(NCCN1CCC2(CC1)C(=O)NCN2c1cccc(F)c1)c1ccc2ccccc2c1` [No. 1, N-(2-(1-(3-fluorophenyl)-4-oxo-1,3,8-triazaspiro[4.5]decan-8-yl)ethyl)-2-naphthamide], in assay [1], the “LC3 localization (GFP/RFP puncta)” value is reported as “induced a robust relocalization of cytosolic LC3-I to large fluorescent puncta”. In addition, the LC3-II conversion entry in assay [2] is “increased LC3-II conversion in both cell types”. Further, in assay [3], the “binding of Rubicon to S295A mutant of Beclin1” value is reported as “failed to increase binding of Rubicon to the S295A mutant of Beclin1” and the “Rubicon co-immunoprecipitated with Beclin1” value was “increased the amount of Rubicon that co-immunoprecipitated with Beclin1”. Besides, in assay [4], the LC3-II conversion result is on record as “robustly induced LC3-II conversion” and the p62 levels result was “increased p62 levels”.

With `C[C@@H](CN1CCC(n2c(=O)[nH]c3cc(Br)ccc32)CC1)NC(=O)[C@@H]1C[C@@H]1c1ccccc1` [No. 2, (1R,2S)—N-((S)-1-(4-(5-bromo-2-oxo-2,3-dihydro-1H-benzo[d]imidazol-1-yl)piperidin-1-yl)propan-2-yl)-2-phenylcyclopropane carboxamide], the “LC3 localization (GFP/RFP puncta)” value in assay [1] is on record as “induced a robust relocalization of cytosolic LC3-I to large fluorescent puncta”. Besides, the LC3-II conversion entry in assay [2] was “increased LC3-II conversion in both cell types”. Further, in assay [4], the LC3-II conversion result is “robustly induced LC3-II conversion” and the p62 levels entry is “increased p62 levels”.

As for `NC1(c2ccc(-c3nc4ccn5c(=O)[nH]nc5c4cc3-c3ccccc3)cc2)CCC1` [MK2206, reference compound], in assay [1], the “LC3 localization (GFP/RFP puncta)” value is “induced a robust relocalization of cytosolic LC3-I to large fluorescent puncta”. Also, in assay [2], the LC3-II conversion entry is given as “increased LC3-II conversion in both cell types”. For the same compound, the “mTOR activity / p70S6-kinase phosphorylation” value in assay [5] is recorded as “diminution of mTOR activity”. Moreover, in assay [3], the “binding of Rubicon to S295A mutant of Beclin1” value is reported as “failed to increase binding of Rubicon to the S295A mutant of Beclin1” and the “Rubicon co-immunoprecipitated with Beclin1” value was “increased the amount of Rubicon that co-immunoprecipitated with Beclin1”. In assay [4], the LC3-II conversion result was “robustly induced LC3-II conversion” and the p62 levels entry is “increased p62 levels”.
